Literature values, collected in PMC6318274, “Lattice engineering enables definition of molecular features allowing for potent small-molecule inhibition of HIV-1 entry” (Nature Communications, 2019).

System: HIV-1 Env-pseudoviruses (208-strain panel)
Conditions: BG505.W6M.C2, clade A; cited from earlier work

## COc1cnc(-n2cnc(C)n2)c2[nH]cc(C(=O)C(=O)N3CCN(C(=O)c4ccccc4)CC3)c12 [BMS-626529]
  IC50: 9 nM
